Measured values taken from PubChem BioAssay AID1508642 (National Center for Advancing Translational Sciences (NCATS), 2021).
Hit rate of the full screen: of about 43,000 compounds, about 200 (0.47%) were called active. About 12% were inconclusive and are not listed. Calls follow the shape of the dose curve; as a rule, active = well fitted cell-killing curve with a large enough effect; inconclusive = small, poorly fitted or top-dose-only effect, or effect the other way; inactive = flat fitted curve, though single readings scatter. The list shows a part of the results.

Test: Cell viability qHTS assay in S16 Pmp22-F2sN cells; also: nearly all actives have a fitted effect of over 65% in size
Conditions: S16 Pmp22-F2sN Schwann cells viability, CellTiter-Glo, 24 h; series mostly up to 57.5 µM; activity change, negative = cytotoxicity: at the top concentration
In short: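 S16 Pmp22-F2sN Schwann cells (500-1,000/well) in phenol-red-free DMEM with 10% FBS received 23 nL compound by pin tool for 24 h at 37 °C. Viability was then read as CellTiter-Glo luminescence after 15 min at room temperature.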
% is scaled to controls: 0 for no effect and ±100 for the full control effect; potency is read from the fitted curve at half-maximal effect.

SMILES | activity change, negative = cytotoxicity | Potency
O=c1c(-c2cc(-c3ccc(F)cc3)nc3c2COc2ccc(Cl)cc2-3)coc2ccc(F)cc12 | inactive: 2.64% | –
CC(=O)N1c2ccc(S(=O)(=O)N3CCN(c4cc(Cl)ccc4C)CC3)cc2CC1C (stereo unspecified) | inactive: -1.51% | –
COc1ccc(-c2nc(C)c(CCNC(=O)c3ccco3)s2)cc1 | inactive: 6.15% | –
CC(C)c1ccc(NC(=O)CSC2=Nc3ccccc3C3=NC(CCC(=O)NCc4ccc(F)cc4)C(=O)N23)cc1 (stereo unspecified) | – | active: 28.2 µM
CCC(C)Sc1nc2c([nH]c3ccccc32)c(=O)n1C (stereo unspecified) | inactive: 9.45% | –
Cc1ccccc1COC(=O)c1ccc(-c2nnn(Cc3ccccc3F)n2)cc1 | inactive: -3.52% | –
CCN1CCN(C(=O)c2ccc3c(c2)N(Cc2c(F)cccc2Cl)C(=O)c2ccccc2S3)CC1 | inactive: -19.5% | –
Cc1ccc(-c2cc(C(=O)N3CCN(S(=O)(=O)c4ccc(Br)s4)CC3)[nH]n2)cc1C | inactive: -3.02% | –
Cc1ccc(S(=O)(=O)n2nc(-c3ccccc3)nc2NCc2ccccc2Cl)cc1 | inactive: -12.2% | –
CCc1ccc(NC(=O)Cn2c(=O)n(Cc3ccc4c(c3)OCO4)c(=O)c3oc4ccccc4c32)cc1 | inactive: 25.1% | –
COc1ccc(CNc2nc(-c3ccco3)nn2S(=O)(=O)c2ccc3ccccc3c2)cc1OC | inactive: 9.54% | –
Cc1cc(C)n2nc(NCc3ccccc3Cl)nc2n1 | inactive: 8.69% | –
Cc1ccc(C)c(NC(=O)Cn2c(=O)n(Cc3nc(C)no3)c(=O)c3cc4c(cc32)OCO4)c1 | inactive: -2.57% | –
Cc1cc(-c2ccc(S(=O)(=O)NCc3ccccc3Cl)s2)on1 | inactive: -24.9% | –
Cc1ccc(-c2cc(-c3coc4ccccc4c3=O)c3c(n2)-c2ccccc2OC3)cc1 | inactive: 23.2% | –
Cc1ccc(S(=O)(=O)N2CCc3cc(C(=O)NCCc4ccccc4)ccc32)cc1 | inactive: -18.7% | –
COc1cccc(Cn2c(=O)cc(C)c3c(C)nn(-c4ccc(C)cc4)c32)c1 | inactive: -11.2% | –
CCOc1ccc(CNC(=O)C2CCN(S(=O)(=O)c3ccc4c(ccn4C)c3)CC2)cc1 | inactive: -2.85% | –
Cc1nn(CC(=O)NCC(C)c2ccccc2)c(=O)c2cc3ccccc3n12 (stereo unspecified) | inactive: 9% | –
COc1cccc(CNC(=O)CCn2c(=O)c3cccn3c3cccnc32)c1OC | inactive: 15.6% | –
Cc1c(C(=O)Nc2ccc(-c3nc4cc(Cl)ccc4o3)cc2)oc2ccccc12 | inactive: 1.11% | –
Cc1ccccc1NC(=O)CSc1cn(CC(=O)N2CCCC2)c2ccccc12 | inactive: -4.6% | –
COc1ccc(N(C)C(=O)c2nc(-c3cccc(F)c3)n3c2CCCCC3)c(OC)c1 | inactive: 3.45% | –
Cc1ccc(-c2noc(-c3ccc(N4CCCCC4C)c([N+](=O)[O-])c3)n2)cc1 (stereo unspecified) | inactive: 15.9% | –
CCCCn1c(=O)c2oc3ccccc3c2n(Cc2cccc(C)c2)c1=O | inactive: 3.25% | –
O=C(Nc1nnc(S(=O)(=O)N2CCCCCC2)s1)c1cccc(Br)c1 | inactive: -8.71% | –
